# Test results: PubChem BioAssay AID1347165 (National Center for Advancing Translational Sciences (NCATS), 2019)
# Screen size: about 220,000 compounds; about 5,700 (2.6%) were called active. The inconclusive results got no clear call from the source; some entries with a clear call stand among them for comparison. The call rests on the fitted dose curve; in most records, active means well fitted inhibition curve with a large enough effect; inconclusive means small, poorly fitted or top-dose-only effect; inactive means no such curve, though single readings can be large or run the other way. Potencies beside an inconclusive call are fits to weak or partial responses and may not hold up.
# Molecular target: Lysine-specific demethylase 5B (Homo sapiens) (UniProt Q9UGL1)
# Sequence of UniProt Q9UGL1 (Q9UGL1 whole entry, looked up): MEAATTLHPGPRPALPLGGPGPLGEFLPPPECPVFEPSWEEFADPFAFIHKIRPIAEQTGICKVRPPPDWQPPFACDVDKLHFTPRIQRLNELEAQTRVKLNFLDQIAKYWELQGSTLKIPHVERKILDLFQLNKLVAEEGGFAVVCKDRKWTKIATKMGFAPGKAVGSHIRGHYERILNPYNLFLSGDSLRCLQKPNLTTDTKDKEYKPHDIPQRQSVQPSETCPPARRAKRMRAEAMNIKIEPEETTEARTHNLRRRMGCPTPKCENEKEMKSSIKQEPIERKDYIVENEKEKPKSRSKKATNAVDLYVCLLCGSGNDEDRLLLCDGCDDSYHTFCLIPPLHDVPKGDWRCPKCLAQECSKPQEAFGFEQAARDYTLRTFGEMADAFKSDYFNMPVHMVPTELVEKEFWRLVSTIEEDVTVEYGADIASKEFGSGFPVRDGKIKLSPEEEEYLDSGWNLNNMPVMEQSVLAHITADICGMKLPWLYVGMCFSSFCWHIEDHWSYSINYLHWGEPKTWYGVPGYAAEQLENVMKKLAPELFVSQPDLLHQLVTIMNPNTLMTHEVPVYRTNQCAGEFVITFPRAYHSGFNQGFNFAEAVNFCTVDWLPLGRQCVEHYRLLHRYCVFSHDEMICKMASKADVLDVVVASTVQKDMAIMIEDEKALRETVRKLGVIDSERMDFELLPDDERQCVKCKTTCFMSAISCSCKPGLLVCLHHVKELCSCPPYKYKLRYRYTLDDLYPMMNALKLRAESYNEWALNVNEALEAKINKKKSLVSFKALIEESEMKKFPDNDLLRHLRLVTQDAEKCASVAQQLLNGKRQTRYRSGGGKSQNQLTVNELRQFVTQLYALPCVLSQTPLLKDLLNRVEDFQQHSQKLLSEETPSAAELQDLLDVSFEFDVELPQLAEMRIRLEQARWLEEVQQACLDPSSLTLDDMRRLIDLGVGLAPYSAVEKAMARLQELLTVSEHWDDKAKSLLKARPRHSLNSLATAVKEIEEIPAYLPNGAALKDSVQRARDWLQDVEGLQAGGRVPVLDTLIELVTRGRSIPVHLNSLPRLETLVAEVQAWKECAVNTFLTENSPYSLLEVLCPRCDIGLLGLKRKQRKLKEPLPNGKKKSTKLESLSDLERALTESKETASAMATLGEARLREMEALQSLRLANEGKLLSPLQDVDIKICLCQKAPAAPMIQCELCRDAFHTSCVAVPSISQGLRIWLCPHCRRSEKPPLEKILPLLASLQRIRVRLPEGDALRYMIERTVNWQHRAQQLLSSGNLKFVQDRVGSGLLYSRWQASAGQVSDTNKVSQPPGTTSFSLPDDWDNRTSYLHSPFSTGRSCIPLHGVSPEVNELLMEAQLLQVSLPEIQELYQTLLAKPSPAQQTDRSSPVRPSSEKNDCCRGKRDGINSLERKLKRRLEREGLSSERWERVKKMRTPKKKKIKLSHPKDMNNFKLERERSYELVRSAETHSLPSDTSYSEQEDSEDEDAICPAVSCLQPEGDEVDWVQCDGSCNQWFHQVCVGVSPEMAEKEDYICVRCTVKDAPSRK
# Assay: Primary screen for KDM5B Histone Demethylases FDH-coupled qHTS; further: nearly all actives have a fitted effect of over 70% in size; on activity change, negative = inhibition: 0% is about no effect
# Conditions: FDH-coupled NADH fluorescence (FDH is formaldehyde dehydrogenase); activity change, negative = inhibition: at 57.7 µM (top of the series) unless noted
# Procedure, shortened: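 qHTS format, multiple compound concentrations. Buffer 50 mM HEPES pH 7.5/0.01% Tween-20; 200 nM KDM5BΔAP final; 10 min compound preincubation; substrate-mix levels 12.5 µM peptide, 25 µM α-KG, 0.25 mM NAD⁺; 30 min RT; ΔRFU.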
# Potency means the concentration at half of the fitted maximal effect; tags describe the fitted curve by direction and shape.
SMILES,Potency,"activity change, negative = inhibition"
Cc1ccccc1C(=O)Nc1c(C)nc2ccccn2c1=O,"inconclusive: 17.8 µM [inhibitor, partial curve, poor fit]",
COc1ccc(OCC2(C)COc3ccc(C(=O)N4CCN(C)C(=O)C4)cc3N2)cc1 (stereo not drawn),,inactive: -19.1% [at 86.2 µM]
CC(=O)c1ccc(NS(=O)(=O)c2ccc3[nH]c4c(c3c2)CCCC4)cc1,,inactive: -10.4%
COc1ccc(Oc2coc3cc(OCC(=O)OCCC(C)C)ccc3c2=O)cc1,,inactive: 22%
Cc1ccc(CNC(=O)c2c[nH]n3c(=O)c(Cc4ccc(Cl)cc4)c(C)nc23)cc1,"inconclusive: 28.2 µM [inhibitor, partial curve, poor fit]",
CCCCSc1nc(N)cc(N2CCCC(C(=O)N3CCOCC3)C2)n1 (stereo not drawn),"inconclusive: 6.31 µM [inhibitor, partial curve]",
COc1ccc(N2CCN(Cc3nc4c(c(=O)[nH]c(=O)n4C)n3CC(C)C)CC2)cc1,,inconclusive: -38.8% [inhibitor]
C#CCNC(=O)C1CCCN(c2nc3ncccc3o2)C1 (stereo not drawn),"inconclusive: 35.5 µM [inhibitor, partial curve, poor fit]",
O=C(/C=C/c1cccc(Cl)c1)NC1CCCC1,,inactive: 17.9%
Cc1noc(C)c1[S+](=O)([O-])N1CCn2cc(C(=O)NCc3ccc(Cl)nc3)nc2C1,,inactive: 9.31% [at 115 µM]
O=C(NC1CCCC1)c1ccc2c(c1)N(Cc1ccccc1)C(=O)c1ccccc1S2,,inactive: -5.92%
CC(=O)Nc1cccc(-c2nc3cc(C)cc(C)c3o2)c1,"inconclusive: 25.1 µM [inhibitor, partial curve, poor fit]",
CN(CCOC(=O)/C=C/c1ccccc1)Cc1ccccc1,,inactive: -0.378%
c1ccc2c(c1)CCN(Cc1ccc3c(c1)CNCCO3)C2,"inconclusive: 3.98 µM [inhibitor, full curve]",
Cc1ccc(CN2CCCCCNC(=O)CC2c2ccccc2)o1 (stereo not drawn),active: 28.2 µM,
CC1(C)CC(/C=C/c2ccccc2)=Nc2ccccc2N1,"inconclusive: 20 µM [inhibitor, partial curve, poor fit]",
CNC(=O)c1cc(-c2ccccc2O)cc2c1OCCN2Cc1cccnc1,active: 31.6 µM,
Cc1cccn2c(=O)c(C(=O)NCCc3ccccc3)cnc12,"inconclusive: 31.6 µM [inhibitor, partial curve, poor fit]",
CN(C)S(=O)(=O)c1ccc(-c2nc(C#N)c(NCCCn3ccnc3)o2)cc1,"inconclusive: 1.58 µM [inhibitor, partial curve, poor fit]",
COCCCNC(=O)Cn1c(=O)nc(-c2ccccc2)c2ccccc21,"inconclusive: 39.8 µM [inhibitor, single point]",
COc1ccc(-c2nc(C3CC3)nc3c2CCN(Cc2ccc(C(F)(F)F)cc2)CC3)cc1,active: 50.1 µM,
Cc1ccc(-c2cc(C(=O)N3CCC(Cc4nncn4CC4CC4)CC3)c3ccccc3n2)cc1C,active: 22.4 µM,

SMILES,Potency,"activity change, negative = inhibition"
Cc1ccc(-n2nc3c(=O)n(CC(=O)NCCC(C)C)nc(C)c3c2C)cc1,"inconclusive: 35.5 µM [inhibitor, single point]",
CC(CNC(=O)c1nnc(Cc2ccc(F)cc2)o1)c1ccccc1 (stereo not drawn),"inconclusive: 15.8 µM [inhibitor, partial curve, poor fit]",
Oc1ccc2c(c1)OCCOCCOc1cc(O)ccc1OCCO2,"inconclusive: 22.4 µM [inhibitor, partial curve, poor fit]",
Cc1oc(-c2ccccc2Cl)nc1Cn1c(SCc2cccc(F)c2)nc2cccnc21,"inconclusive: 35.5 µM [inhibitor, partial curve, poor fit]",
c1csc(-c2nc3nccc(-c4cc5ccccc5o4)n3n2)c1,"inconclusive: 3.16 µM [inhibitor, partial curve, poor fit]",
CC(C)n1cc(CN2CCCC23CCN(c2ccc(C(F)(F)F)cn2)CC3)cn1,"inconclusive: 25.1 µM [inhibitor, single point]",
CN(Cc1ccc(F)cc1)c1ccc2ncc(Nc3ccnc(N4CCOCC4)c3)n2n1,active: 28.2 µM,
O=C(CCCNC(=O)c1ccc(Cl)cc1)NCc1cccc(C(F)(F)F)c1,,inactive: -18.3%
C/C=C/C=C/C(=O)OCC(=O)c1ccc(Br)s1,,inactive: -24.2%
COC(=O)c1ccc(COc2ccc(/C=C(/CC(=O)O)c3nc4ccccc4s3)cc2)cc1,"inconclusive: 39.8 µM [inhibitor, single point]",
COc1ccc(CC(=O)NCCc2csc(-c3cccc(C)c3)n2)cc1,"inconclusive: 12.6 µM [inhibitor, partial curve, poor fit]",
COCCn1cnc2ccc(-c3ccsc3)nc2c1=O,active: 35.5 µM,
Cc1cn2nc(C(=O)N3CCC(NC(=O)Cc4ccccc4Cl)CC3)cc2c(=O)[nH]1,"inconclusive: 31.6 µM [inhibitor, partial curve, poor fit]",
Cc1cccc(OCC(=O)Nc2ccc(-c3nc4ccccc4o3)cc2)c1C,"inconclusive: 2.24 µM [inhibitor, full curve, poor fit]",
COCCCNC(=O)c1c(N)n(-c2ccccc2)c2nc3ccccc3nc12,"inconclusive: 25.1 µM [inhibitor, partial curve, poor fit]",
O=C(COCc1cc(-c2cccs2)on1)N1CCN(c2cccc(Cl)c2)CC1,"inconclusive: 31.6 µM [inhibitor, single point]",
Cc1ccccc1-c1cc(C(=O)NCC[S+](C)(=O)[O-])c2c(c1)N(C)CCO2,active: 35.5 µM,
Cc1cccc(OCCc2noc(C3CCN(C(=O)C4CCCC4)C3)n2)c1 (stereo not drawn),,inactive: -16.3%
Cc1ccc(OCc2nc(C3CN(C(=O)c4cc5ccccc5[nH]4)C3)no2)cc1,"inconclusive: 20 µM [inhibitor, single point]",
Cc1ccc(-c2nc(NC(C)(C)CO)nc3ccccc23)cc1,"inconclusive: 39.8 µM [inhibitor, single point]",
CCN(C(=O)Nc1cn(CC(C)C)c(=O)c2ccccc12)c1cc(C)ccc1C,"inconclusive: 31.6 µM [inhibitor, partial curve, poor fit]",
